The values that follow come from paper PMC4336329 (PLoS ONE, 2015).

The whole screen tested about 310,000 compounds, of which about 14,000 (4.5%) showed an effect of 50% or more. Effects have a minus sign here. This is one part of the list.
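Also: peak tail current of the secondary pulse compared with the same well before compound.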

For the assay, the target named is human ether-à-go-go-related gene (hERG) potassium channel (human, UniProt Q12809). In words: primary screen, population patch clamp on CHO cells stably expressing hERG.
Chain of human ether-à-go-go-related gene (hERG) potassium channel (Q12809 whole entry, looked up): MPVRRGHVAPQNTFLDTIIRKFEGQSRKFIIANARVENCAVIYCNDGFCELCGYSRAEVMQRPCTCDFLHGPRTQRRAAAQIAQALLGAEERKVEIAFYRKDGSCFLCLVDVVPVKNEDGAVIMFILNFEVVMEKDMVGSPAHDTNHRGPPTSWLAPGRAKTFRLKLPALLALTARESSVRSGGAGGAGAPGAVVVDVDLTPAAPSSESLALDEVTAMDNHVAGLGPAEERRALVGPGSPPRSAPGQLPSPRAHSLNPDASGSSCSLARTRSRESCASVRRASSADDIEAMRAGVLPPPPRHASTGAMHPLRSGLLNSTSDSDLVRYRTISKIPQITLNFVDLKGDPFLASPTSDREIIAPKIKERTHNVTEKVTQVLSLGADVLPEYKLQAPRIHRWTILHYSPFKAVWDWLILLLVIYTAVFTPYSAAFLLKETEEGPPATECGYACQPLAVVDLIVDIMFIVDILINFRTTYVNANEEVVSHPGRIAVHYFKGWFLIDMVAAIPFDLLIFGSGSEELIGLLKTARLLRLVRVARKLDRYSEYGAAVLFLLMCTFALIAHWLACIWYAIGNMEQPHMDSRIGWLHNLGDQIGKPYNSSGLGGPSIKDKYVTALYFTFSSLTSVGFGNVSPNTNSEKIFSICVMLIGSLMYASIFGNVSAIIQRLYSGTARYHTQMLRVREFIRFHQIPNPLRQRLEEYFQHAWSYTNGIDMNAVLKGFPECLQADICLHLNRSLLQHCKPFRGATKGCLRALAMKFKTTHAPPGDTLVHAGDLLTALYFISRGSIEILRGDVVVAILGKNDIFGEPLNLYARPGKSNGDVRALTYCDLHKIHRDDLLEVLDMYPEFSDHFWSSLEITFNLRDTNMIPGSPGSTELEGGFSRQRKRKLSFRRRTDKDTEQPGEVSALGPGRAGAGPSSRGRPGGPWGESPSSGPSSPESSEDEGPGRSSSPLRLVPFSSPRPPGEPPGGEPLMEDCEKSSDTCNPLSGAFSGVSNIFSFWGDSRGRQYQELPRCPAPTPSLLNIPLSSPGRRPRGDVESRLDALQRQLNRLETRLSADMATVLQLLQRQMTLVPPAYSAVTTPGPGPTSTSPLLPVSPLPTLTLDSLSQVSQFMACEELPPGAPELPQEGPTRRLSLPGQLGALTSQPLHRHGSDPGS
Turning to `COc1ccc(CNC(=O)CN2C(=O)NC(C)(c3cccc(Br)c3)C2=O)cc1` (stereo not drawn), the “hERG current change (%, negative = inhibition) at 10uM” value is reported as -0.0132%. For `CC(C)(C)C(=O)N=C1SC2CS(=O)(=O)CC2N1c1ccc2c(c1)OCO2` (stereo not drawn) the value was -17.6%; for `O=C(NCc1ccc(F)cc1)C1CCCN(c2cnccn2)C1` (stereo not drawn), -65%; for `COC(=O)c1ccc(NC(=O)CC[NH+]2CCCCC2)cc1.[Cl-]`, -16.3%. In the case of `O=C(N1CCN(c2ccccc2F)CC1)C1(c2cccs2)CCOCC1` it was 3.18%; in that of `CCC(OC(=O)c1cc2sccc2n1C)C(=O)NCc1ccco1` (stereo not drawn), -17.5%. In the case of `COc1ccc(CCNC(=O)CCC(=O)n2ncc3cc(C)ccc32)cc1OC`, the “hERG current change (%, negative = inhibition) at 10uM” value is reported as -1.2%. Turning to `CCOC(=O)c1oc2cc(O)ccc2c(=O)c1-c1ccccc1OC`, the “hERG current change (%, negative = inhibition) at 10uM” value is reported as 2.03%. With `COc1ccc(C2C(C(=O)c3sc(C)nc3C)=C(O)C(=O)N2CCN(C)C)cc1OC` (stereo not drawn), the “hERG current change (%, negative = inhibition) at 10uM” value was 11.8%. In the case of `COC(=O)[C@@]12CCCCN1[C@H](c1ccc(-c3ccc(F)cc3)cc1)[C@@H]1C(=O)N(C)C(=O)[C@@H]12.O=C(O)C(F)(F)F` it was -27.1%. For `Cn1c(CN2CCCC2)nc2cc(NC(=O)Nc3ccccc3)ccc21` the value was -8.85%; for `C/C(=N\NC(=O)c1nonc1N)c1cccs1`, 4.26%; for `COc1ccc(NC(=O)c2ccc(COc3ccccc3Br)o2)cc1OC`, 0.369%. In the case of `Cc1ccc([N+](=O)[O-])cc1S(=O)(=O)Nc1ccc(-c2ccc(N3CCCC3)nn2)cc1` it was -10.4%; in that of `CCOc1ccc2nc(NC(=O)c3ccc(OC)c(S(=O)(=O)N4CCOCC4)c3)sc2c1`, -23.3%; in that of `COc1ccc(C(=O)NC(CC(C)C)C(=O)O)cc1` (stereo not drawn), 6.81%. With `O=C(O)CCC(=O)N1CCN(c2ncccc2C(F)(F)F)CC1`, the “hERG current change (%, negative = inhibition) at 10uM” value was 9.74%. In the case of `COc1ccc(C(=O)NC(=S)Nc2ccc3[nH]c(=O)[nH]c3c2)c(OC)c1` it was 5.35%; in that of `O=[N+]([O-])c1ccccc1N/N=C\c1ccccc1Cl`, 21.6%. In the case of `O=C(NC(O)C(=O)c1ccccc1)c1ccc(F)cc1` (stereo not drawn) it was 16.6%; in that of `CCCNC(=O)c1ccccc1NC(=O)C1=CSCCO1`, 3.83%; in that of `CCc1nc2nc(C)c(NS(=O)(=O)c3ccc(Cl)s3)c(=O)n2[nH]1`, 20.7%. Consider `COc1cc(OC)c2c(C)c(Cl)c(=O)oc2c1`, for which the “hERG current change (%, negative = inhibition) at 10uM” value was determined as 14.3%. `CC(C)(C)c1cc(CCC(=O)NNC(=O)c2ccco2)cc(C(C)(C)C)c1O`: the “hERG current change (%, negative = inhibition) at 10uM” value is given as -19.1%.
